Measurements reported in the RNAGym collection of RNA variant scans (doi:10.7554/elife.90254).
Read counts are not given, so values of variants with three or more changes are uncertain.

B1: LINE1-mini (parent)
chain: GGCAGAGCUCAACACAGCGUGGCAAAGUGGCUGUGGCUAGACUGCC

Variants of: B1
Assay: self-cleavage, relative activity (ratio to wild type); higher = more cleavage; in vitro, sequencing; the parent is a self-cleaving ribozyme

| Variant | self-cleavage |
| --- | --- |
| U32A A39G U43A | 0.06 |
| U32G G36U C46U | 0.05 |
| U34A A41G G44A | 0 |
| U32C G35C C46A | 0.02 |
| G33A C42A U43A G44A | 0.09 |
| C31U C37G C46A | 0.01 |
| C31U G33C A39U | 0.05 |
| C31A U38G A41G | 0.04 |
| C31U G35U G44C C45A | 0.01 |
| U32A C37A A41U | 0.02 |
| G33A G35A G36A | 0.1 |
| G36C C37G A39G G44A | 0.04 |
| G33U G35C G36C A39G G44C | 0.01 |
| G35U A39G C46U | 0.02 |
| U32C A39G A41C | 0.04 |
| G33U C42U U43A C46U | 0.04 |
| G33C G44C C45U | 0.02 |
| G33U U34G G36U | 0.06 |
| G36A C37G G40C | 0.06 |
| G36C C37A G40U | 0.55 |
| G33C G40U C46U | 0.04 |
| U32C C37A A39G | 0.01 |
| G33U C37U A41C | 0.23 |
| U32A C42A U43A | 0.12 |

| Variant | self-cleavage |
| --- | --- |
| G33A U34G G36A | 0.13 |
| U34A C42U C46U | 0.06 |
| U32G C37A C46G | 0 |
| G30U C31G U32C | 0.1 |
| U34G A39U A41U | 0.04 |
| C31A U43G C45A | 0 |
| G33C C37U G44U | 0.01 |
| U32C G33U U38A | 0.01 |
| U34G C37G A41G U43G | 0 |
| G33C G36U C37A A41G C42G | 0.03 |
| C31U G40A C45G | 0.04 |
| U34G U38C C46G | 0.01 |
| G35U G36C C45U C46A | 0.03 |
| U34C G35U U38A | 0.07 |
| G30U G35C C37A | 0.07 |
| C31G G36C A41C | 0 |
| G30U C31A U43A | 0.06 |
| U32A C42A C46A | 0.11 |
| U32G G40A C42U G44C | 0.02 |
| G30U G44A C45U | 0.12 |
| C31A G44A C45G | 0.13 |
| G33A G40A G44C C46U | 0.02 |
| C31G U32G G36U | 0.05 |
| C31G U32G G36C | 0.03 |

| Variant | self-cleavage |
| --- | --- |
| G33A G35U C37G | 0.03 |
| C31A G35U A39C | 0.05 |
| U32G G35C C37G | 0.02 |
| G35C A39U C42U | 0.04 |
| C31G C42A G44U | 0.04 |
| U32G G33C G44C | 0.38 |
| U34C G36U C42G | 0.1 |
| U34C G35A A41U | 0.01 |
| U34A G36A U43G C45U | 0.02 |
| U32C G33U G36A | 0.01 |
| U32G G35A G40A | 0.02 |
| U32A G40C G44C | 0.02 |
| U34G G36U U38G C42A G44U | 0.01 |
| U32G C45A C46A | 0.06 |
| U32A G33U U34C G36A | 0.05 |
| G33A U38G C46U | 0.02 |
| C31A U32G C37A | 0.15 |
| G35A U43G C45A | 0.12 |
| U32C G35C G40C C46G | 0.02 |
| G35C C45A C46U | 0.04 |
| U32G C42A U43A | 0.08 |
| U34A G40C U43A | 0.01 |
| G33C U38C A39G G40U A41U | 0.03 |
| G33C U34G G35C G40C C46U | 0 |

| Variant | self-cleavage |
| --- | --- |
| G30U G35A C45G | 0.01 |
| G30U G35A C45A | 0.02 |
| C31A G33U G36U | 0.02 |
| G33U C45U C46A | 0.11 |
| U32C A41C U43C | 0.05 |
| U32A C37U C45U | 0.02 |
| C31G G36C G40U | 0.03 |
| G30U C31G A41G | 0 |
| U32C C42A C45U | 0.04 |
| C31G G40C A41G | 0.03 |
| U32A A41C C46A | 0.03 |
| U32A U38A C45U | 0.01 |
| G30U C31U C37A | 0.08 |
| U32C G33C C42A | 0.06 |
| C31U U38C G40C | 0.02 |
| G35U U38C A39G G40A A41G C42A U43C G44U C45G | 0.05 |
| C31A G40U C42A | 0.02 |
| U34A C37G G40A | 0.02 |
| G33U G36U A41U | 0.15 |
| G33A C42A C45A | 0.01 |
| U32C G44A C46G | 0.03 |
| G35A G36C G40U | 0.27 |
| C31G G35A G40C | 0 |
| C31A G44U C45A | 0 |

| Variant | self-cleavage |
| --- | --- |
| G30U U34A C46U | 0.03 |
| U32C G33U G40A | 0.04 |
| U34G U38C G40U | 0.04 |
| C31A C37U A41G | 0.04 |
| C31U A41G C42A | 0.01 |
| G36A A41G U43C | 0.17 |
| C31G G40U C42A C45A | 0.01 |
| G36U A41U C45G C46U | 0.03 |
| G33A G36C G40A | 0.07 |
| G30U U34G C45A | 0.02 |
| G33A U34A U38C | 0.03 |
| G33A C42A U43A | 0.1 |
| G33A C42A U43G | 0.07 |
| U32A C42G C46G | 0.03 |
| G33A C42G C45U | 0.03 |
| G35C G40A C46G | 0.12 |
| G30U U32A G33C | 0.01 |
| C31A G36U A41U | 0.16 |
| G33A G36U C42U C46A | 0 |
| G33C G35A G36U | 0.05 |
| G33A A39C U43C | 0.17 |
| U34G C37G G44U | 0.04 |
| G33C G40A C45A | 0.05 |
| G30U U32C A39G | 0.03 |

| Variant | self-cleavage |
| --- | --- |
| C31A A39U C42A | 0.05 |
| C31A C37A A39C | 0.74 |
| G30U G36U C46U | 0.07 |
| C31A U32A G36A A39C | 0 |
| C31A A39U A41U | 0.01 |
| G33U G36A C45G | 0.02 |
| G33C C37U C46U | 0.02 |
| G33U G36U C45G | 0.02 |
| U34C G36C C37U | 0.02 |
| C31G C37G G44C C46A | 0.02 |
| G35A C37A U38C A41U | 0.23 |
| G33A G35C G40C C46G | 0.07 |
| G35U G36U A39U | 0.11 |
| G35C U38A C45U | 0.08 |
| U32G C37A A39C G40A | 0.1 |
| G30U U43A G44A | 0.1 |
| C31A U32A C45G | 0.09 |
| G30U U32C U34A | 0.04 |
| G30U U32C U34G | 0.06 |
| U32A G36C G40C | 0.01 |
| G33C G40C G44U | 0.1 |
| U34C G35U C42U | 0.04 |
| U32A C37A C46G | 0.14 |
| U32C A39U G40U | 0.09 |

| Variant | self-cleavage |
| --- | --- |
| G33U U34G A41G | 0.05 |
| C31A C37A C46A | 0.03 |
| G33U C37A G44A | 0.07 |
| U32C G35C G40C | 0.07 |
| U32C G35A C42A | 0.03 |
| U32C G35A C42G | 0.04 |
| G35C G36C C42U G44C | 0.02 |
| U32G A41C C42A | 0.07 |
| C31G G33C C37U | 0.05 |
| C31U U32C U38A G40A C45U | 0.06 |
| U34G G35U G36A G44U C45A | 0.04 |
| U34G A39U C46A | 0.2 |
| C31G G35C G40C | 0.05 |
| G36U A41G U43A | 0.07 |
| C31G G35C C46U | 0.06 |
| U34A G36C C42U | 0.08 |
| C31U G35C U38A | 0.11 |
| G35U G36C U43G | 0.37 |
| G35U G40U U43G | 0 |
| G30U C42G U43C G44U | 0.07 |
| G30U C31G G40U | 0.11 |
| G35U G44U C45U | 0.03 |
| U32A U34A U43C C45G | 0.02 |
